Source: paper PMC4336329 (PLoS ONE, 2015)
The whole screen tested about 310,000 compounds, of which about 14,000 (4.5%) showed an effect of 50% or more. Effects have a minus sign here. The list shows a part of the results.

Each compound was assayed against human ether-à-go-go-related gene (hERG) potassium channel (human, UniProt Q12809) (assay: primary screen, population patch clamp on CHO cells stably expressing hERG).
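Also: peak tail current of the secondary pulse compared with the same well before compound.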

human ether-à-go-go-related gene (hERG) potassium channel, sequence (Q12809 whole entry, looked up): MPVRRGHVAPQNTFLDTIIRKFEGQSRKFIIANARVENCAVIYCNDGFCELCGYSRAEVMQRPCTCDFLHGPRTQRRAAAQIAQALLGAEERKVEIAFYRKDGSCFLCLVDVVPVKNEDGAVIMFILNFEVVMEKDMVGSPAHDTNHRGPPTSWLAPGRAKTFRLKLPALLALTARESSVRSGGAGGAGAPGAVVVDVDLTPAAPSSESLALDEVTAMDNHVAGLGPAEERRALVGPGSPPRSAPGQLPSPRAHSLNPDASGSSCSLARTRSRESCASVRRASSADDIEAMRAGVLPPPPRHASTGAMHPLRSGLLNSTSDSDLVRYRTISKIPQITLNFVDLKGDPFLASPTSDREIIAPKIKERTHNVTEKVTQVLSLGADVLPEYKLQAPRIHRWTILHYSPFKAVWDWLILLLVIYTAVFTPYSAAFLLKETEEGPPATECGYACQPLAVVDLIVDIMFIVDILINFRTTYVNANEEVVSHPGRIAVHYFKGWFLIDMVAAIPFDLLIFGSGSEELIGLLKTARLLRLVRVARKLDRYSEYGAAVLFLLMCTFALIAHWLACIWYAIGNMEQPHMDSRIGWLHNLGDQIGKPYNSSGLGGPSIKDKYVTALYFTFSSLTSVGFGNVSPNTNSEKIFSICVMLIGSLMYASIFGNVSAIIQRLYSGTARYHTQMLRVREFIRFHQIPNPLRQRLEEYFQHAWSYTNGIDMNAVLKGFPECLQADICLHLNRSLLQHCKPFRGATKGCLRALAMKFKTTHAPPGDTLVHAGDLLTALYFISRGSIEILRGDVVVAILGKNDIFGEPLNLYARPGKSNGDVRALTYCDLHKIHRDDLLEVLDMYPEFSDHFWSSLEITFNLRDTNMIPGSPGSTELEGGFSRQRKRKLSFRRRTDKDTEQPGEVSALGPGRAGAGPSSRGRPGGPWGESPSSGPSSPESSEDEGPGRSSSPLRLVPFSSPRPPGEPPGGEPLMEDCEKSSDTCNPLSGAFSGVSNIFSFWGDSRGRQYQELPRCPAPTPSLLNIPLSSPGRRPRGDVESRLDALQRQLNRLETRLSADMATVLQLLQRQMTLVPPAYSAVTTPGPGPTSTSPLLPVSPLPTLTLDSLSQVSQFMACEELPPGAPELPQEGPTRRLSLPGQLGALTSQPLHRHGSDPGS

Row | SMILES | hERG current change (%, negative = inhibition) at 10uM [%]
1 | COC(=O)c1ccc(C23CC4(C2)[C@H](CN(Cc2ccc(-c5ccccc5)cc2)[C@@H]4c2ccccc2)C3c2ccccc2)cc1 (stereo partly shown) | 13.3
2 | CCCCc1nc(Cl)c(C#N)c2c1CCC2 | 6.53
3 | O=C(Nc1ccc(F)cc1)c1cc(S(=O)(=O)Nc2ccc(F)cc2)cs1 | -3.73
4 | Cc1cc(C)c(C#N)c(N2CCN(c3ccc(F)cc3)CC2)n1 | 10.3
5 | CCOC(=O)c1sc(NC(=O)c2ccc3nc[nH]c3c2)nc1C | 8.25
6 | CCCCc1cc(=O)oc2cc(C)cc(O)c12 | -17.2
7 | COc1ccc(CNC(=O)C2CCC(CNS(=O)(=O)c3cccc4nsnc34)CC2)cc1 (stereo not shown) | 9.06
8 | Cc1ccc2c(c1)cc(CN(C(=O)N1CCOCC1)C1CCCC1)c1nnnn12 | -9.24
9 | Nc1c(C(=O)c2ccco2)oc2ccccc12 | 21.5
10 | CC1(C)Cc2cccc(OCC(=O)OCC(=O)Nc3ccc(C(N)=O)cc3)c2O1 | -15.6
11 | O=C(Nc1cccc(F)c1)c1ccc(CSc2ccccc2)o1 | 5.17
12 | CC1CCCCN1C(=O)c1cc2ccccc2cc1O (stereo not shown) | 10.9
13 | CCn1nccc1C(=O)NC1=C(C#N)CCC1 | 13.2
14 | O=C(CCCn1nnc2ccccc2c1=O)N[C@H](C(=O)O)c1ccccc1 | 5.81
15 | Cc1ccc(NC(=O)C2(c3ccccc3)CCCC2)nc1 | 8.18
16 | O=C(Cn1cc(C(F)(F)F)cc(Cl)c1=O)NCC1COc2ccccc2O1 (stereo not shown) | 5.57
17 | O=C(Nc1ccccn1)c1ccc2c(=O)n3c(nc2c1)CCCCC3 | -47.2
18 | COc1ccccc1OCCNC(=O)c1cc(C2CC2)nc2c1cnn2C(C)C | -6.06
19 | Cc1c(OC(=O)c2ccc([N+](=O)[O-])cc2)c2c(c[n+]1C)COC(C)(C)OC2.[I-] | 9.15
20 | NC(=O)C1CCN(CC(=O)Nc2ccccc2N2CCOCC2)CC1 | 3.15
21 | C=CCN(C)NC(=S)Nc1ccccc1 | 21.5
22 | NC(=O)c1c(N)sc2c1CCCCC2 | 13.1

Row | SMILES | hERG current change (%, negative = inhibition) at 10uM [%]
23 | CC(C)C1Cc2c(C#N)c(N)n(C)c(=S)c2CO1 (stereo not shown) | -28.4
24 | Cc1nn(-c2cc(C(F)(F)F)ccc2Cl)c2nc(C(F)(F)F)[nH]c(=O)c12 | 18
25 | Cc1c(NC(=O)COC(=O)CSc2ccc(C(N)=O)cc2[N+](=O)[O-])c(=O)n(-c2ccccc2)n1C | 23.1
26 | CCN(CC)C(=O)c1[nH]cnc1C(=O)Nc1ccccc1 | -6.51
27 | CCN1C(=NCCc2cccnc2)N[C@@H](c2ccccc2)C(C(=O)OC)=C1C | -51.2
28 | O=C(NCc1ccc2c(c1)OCO2)Nc1ccc2nsnc2c1 | 11.6
29 | O=C(NCc1nnc2c(C(F)(F)F)cc(Cl)cn12)c1cccnc1 | 24.3
30 | COc1ccc(-n2c(O)c(C=NCc3ccccn3)c3ccccc3c2=O)c(OC)c1 | 9.68
31 | Cc1ccc(CN2CCNC(=O)C2CC(=O)N(C)C2CCCCC2)o1 (stereo not shown) | 1.35
32 | O=C(NCc1cccs1)C1CCC(CNS(=O)(=O)c2ccc(Br)s2)CC1 (stereo not shown) | -4.63
33 | COc1ccc(S(=O)(=O)NC2CC(=O)N(c3ccccc3)C2)cc1C (stereo not shown) | -4.93
34 | CCn1c(Sc2ccc(N)cc2Cl)nc2ccccc21 | 2.83
35 | Clc1ccc(-c2nnc(C3CC3)o2)cc1 | -4.48
36 | Cc1noc2ncnc(N3CCN(c4ccc(F)cc4)CC3)c12 | -38.3
37 | O=C(NCc1ccc2c(c1)OCO2)C1CCCN1C(=O)Nc1ccc(F)cc1 (stereo not shown) | -30.8
38 | CCC(CC)NC(=O)Cc1ccc(S(=O)(=O)N2CCOCC2)s1 | 3.03
39 | CCC(CC)NC(=O)CO/N=C/c1ccccc1OC(F)F | -13.3
40 | CCOc1ccc(NC(=S)NN(C)C(=S)Nc2ccc(OCC)cc2)cc1 | 5.64
41 | CCOc1ccc(-n2c(C)nc3cc(C(=O)NCC4CCCO4)ccc32)cc1 (stereo not shown) | -15.2
42 | Cc1oc2c(c1C(=O)Nc1cccc3ccccc13)CCCC2 | -4.55
43 | CC1=C(C(N)=O)C(c2cccnc2)n2nc(-c3cccc(C)c3)nc2N1 (stereo not shown) | 0.347
44 | O=C(Nc1ccccc1-c1ccccc1)NC1CCN(CC(=O)N2CCOCC2)CC1 | 8.25

Row | SMILES | hERG current change (%, negative = inhibition) at 10uM [%]
45 | Cc1[nH]c(=O)[nH]c(=O)c1CSCC(=O)OCC(=O)c1ccc(Br)cc1 | 6.18
46 | Cc1c(O)ccc(C(=O)CN2CCN(c3ccccc3)CC2)c1O | -14
47 | Cc1nnc(NC(=O)C2C3C=CC(O3)C2C(=O)O)s1 (stereo not shown) | 0.943
48 | CC(NC(=O)C1CCC(CNc2c(N3CCOCC3)c(=O)c2=O)CC1)c1ccccc1 (stereo not shown) | 7.56
49 | CC(NC(=O)C12CC3CC(C)(CC(C)(C3)C1)C2)c1ccncc1 (stereo not shown) | -9.96
50 | CCC[n+]1c(C)sc2c(OC)ccc(OC)c21.[I-] | 8.21
51 | O=c1c2ccccc2c(C=Nc2ccc(S(=O)(=O)N3CCCCC3)cc2)c(O)n1-c1ccc(Cl)cn1 | 17.5
52 | CCc1nnc(NC(=O)CSc2nnc(-c3ccoc3C)n2-c2ccc(C)cc2)s1 | -26.4
53 | Cc1ccc(N2C(=O)CN(Cc3ccccc3)C2=S)cc1C | 9.73
54 | CC(=O)OCCn1c2nc(=O)[nH]c(=O)c-2nc2cc(C)c(C)cc21 | 16.3
55 | Cc1ccc(S(=O)(=O)N2CCCOC2CNC(=O)C(=O)NCc2cccs2)cc1 (stereo not shown) | -6.69
56 | Cc1ccc(-c2cc(C(=O)Nc3sc4c(c3C(=O)NCc3ccco3)CCC4)[nH]n2)c(O)c1 | -0.984
57 | O=C(c1ccc(C(F)(F)F)cc1)C1CCCN(C2CCSCC2)C1 (stereo not shown) | -71.2
58 | COc1cc(/C=C/C(=O)c2ccc(C)cc2)ccc1OCC#N | -7.24
59 | O=C(CCCCCCCCCCC(=O)NCc1cccnc1)NCc1cccnc1 | -9.76
60 | COc1cccc(NC(=O)CSc2nnc3c(n2)[nH]c2ccc(C)cc23)c1 | 8.36
61 | CC(C)NS(=O)(=O)c1ccc(OCC(=O)N2CCN(Cc3ccc4c(c3)OCO4)CC2)c(Cl)c1 | -41.4
62 | Cn1c(NCCc2ccccc2)cc(=O)n(C)c1=O | 2.95
63 | C/C(=N\NC(=S)Nc1c(C)cccc1C)c1cc2ccccc2o1 | 15.1
64 | COc1cc(OC)c(OC)cc1CN1CCN(Cc2cccn2C)CC1.O=C(O)C(=O)O | 0.393
65 | Cc1sc2ncn(-n3c(C)ccc3C)c(=O)c2c1C | -1.61
66 | COc1ccc(NC(=O)Cn2c(-c3ccccc3)cn(-c3ccc(C)cc3)c2=O)cc1 | 7.99

Row | SMILES | hERG current change (%, negative = inhibition) at 10uM [%]
67 | CCOc1ccccc1NC(=O)Cn1nnc(C(=O)NCCc2ccc(OC)c(OC)c2)c1N | 3.08
68 | On1onc2c3cc(-c4ccccc4)nc3ccc21 | -3.53
69 | O=C(N/N=C/c1ccc2c(c1)OCO2)C(=O)Nc1cccc(Cl)c1 | 21.1
70 | COc1cccc(Sc2ccccc2/C=N/NC(N)=O)c1 | 8.91
71 | CCCCC(=O)Nc1ccc(S(=O)(=O)N2CCCCC2c2cccnc2)cc1 (stereo not shown) | -29
72 | CCOC(=O)c1c(C)[nH]c(C(=O)OCC(=O)N2c3ccccc3CC2C)c1C (stereo not shown) | 13
73 | Cc1nc2cc3nc(C)sc3cc2s1 | 2
74 | O=C(Nc1nnc(SCc2ccc(Cl)cc2Cl)s1)C1COc2ccccc2O1 (stereo not shown) | 3.59
75 | CCC(C)OC(=O)C1=C(C)NC(=O)NC1c1ccc(F)cc1 (stereo not shown) | 1.85
76 | COc1ccc2cc3cc(C(=O)NCC4COc5ccccc5O4)oc3nc2c1 (stereo not shown) | 6.49
77 | O=C(NCCC1CCCCN1S(=O)(=O)c1cccs1)C(=O)NCc1ccccc1 (stereo not shown) | 6.03
78 | C#Cc1ccc([C@H]2C=C(C(=O)NC3CC3)O[C@@H](OCC)[C@@H]2CCCO)cc1 | -5.37
79 | COc1ccc(S(=O)(=O)N2CCCC2)cc1C(=O)N1CCOCC1 | 1.24
80 | O=C(NC1CCSc2ccccc21)c1cc([N+](=O)[O-])ccc1N1CCOCC1 (stereo not shown) | -57.8
81 | CCNc1ccc(C(=O)OCC(=O)NCc2ccc(C)cc2)cc1[N+](=O)[O-] | 20.9
82 | CC(C)N(c1ccccc1)c1ccc(NC(=S)NCCN(C)C)cc1 | -1.95
83 | CN(Cc1ccccc1)C(=O)C(C(=O)c1ccc(F)cc1)n1cc(Cl)ccc1=O (stereo not shown) | -8.83
84 | Cc1c(N/C=C(\Cl)C(=O)C(F)(F)F)c(=O)n(-c2ccccc2)n1C | 4.21
85 | CCn1c(N2CCN(S(=O)(=O)c3ccccc3C(F)(F)F)CC2)nc2ccccc21.Cl | -39.6
86 | O=C(NC(=S)Nc1ccc2c(c1)OCCO2)c1ccccc1F | 10.7
87 | COc1cccc2cc(C(C)=O)oc12 | 15.5
88 | CCC1OC2(C)OC(=N)C1(C#N)C(C#N)(C#N)C2c1ccccc1 (stereo not shown) | 17.9
